{
  "source": "paper PMC4336329",
  "about": "(PLoS ONE, 2015)",
  "note": "Hit rate of the full screen: of about 310,000 compounds, about 14,000 (4.5%) showed an effect of 50% or more. The effect is printed as a negative number. Some of the results follow.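 Further: peak tail current of the secondary pulse compared with the same well before compound.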",
  "data": [
    {"target": "human ether-à-go-go-related gene (hERG) potassium channel (human, UniProt Q12809)", "sequence (Q12809 whole entry, looked up)": "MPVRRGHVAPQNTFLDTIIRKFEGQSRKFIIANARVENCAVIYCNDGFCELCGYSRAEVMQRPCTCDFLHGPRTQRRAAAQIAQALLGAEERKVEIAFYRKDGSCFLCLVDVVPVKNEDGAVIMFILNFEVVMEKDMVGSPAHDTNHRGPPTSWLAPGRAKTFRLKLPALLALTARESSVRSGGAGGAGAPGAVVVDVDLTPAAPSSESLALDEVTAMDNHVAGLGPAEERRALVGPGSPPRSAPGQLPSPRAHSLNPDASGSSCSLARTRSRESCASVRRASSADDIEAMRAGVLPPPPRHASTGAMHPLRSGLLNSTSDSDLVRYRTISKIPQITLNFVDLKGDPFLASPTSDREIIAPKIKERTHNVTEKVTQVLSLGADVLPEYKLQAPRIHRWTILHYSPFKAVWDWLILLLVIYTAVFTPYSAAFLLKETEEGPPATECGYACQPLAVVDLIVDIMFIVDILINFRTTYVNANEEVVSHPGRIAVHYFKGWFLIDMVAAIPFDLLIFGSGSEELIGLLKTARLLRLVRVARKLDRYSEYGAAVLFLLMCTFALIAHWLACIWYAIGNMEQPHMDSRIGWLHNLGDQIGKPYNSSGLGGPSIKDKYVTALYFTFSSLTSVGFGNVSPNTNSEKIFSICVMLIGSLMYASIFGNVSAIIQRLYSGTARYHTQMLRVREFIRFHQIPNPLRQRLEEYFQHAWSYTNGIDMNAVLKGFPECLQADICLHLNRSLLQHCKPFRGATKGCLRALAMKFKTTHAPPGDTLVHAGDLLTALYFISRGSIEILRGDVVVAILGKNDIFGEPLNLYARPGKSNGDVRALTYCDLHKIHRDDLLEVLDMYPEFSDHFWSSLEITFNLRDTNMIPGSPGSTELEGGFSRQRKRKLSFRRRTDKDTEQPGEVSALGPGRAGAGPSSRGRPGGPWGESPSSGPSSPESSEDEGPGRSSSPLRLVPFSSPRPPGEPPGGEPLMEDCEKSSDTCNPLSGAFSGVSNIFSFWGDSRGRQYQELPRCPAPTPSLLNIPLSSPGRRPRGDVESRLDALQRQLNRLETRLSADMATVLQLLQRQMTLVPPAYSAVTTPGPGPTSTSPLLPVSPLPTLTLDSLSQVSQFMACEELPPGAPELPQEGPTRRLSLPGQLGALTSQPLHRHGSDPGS", "experiment": "primary screen, population patch clamp on CHO cells stably expressing hERG", "units": {"hERG current change (%, negative = inhibition) at 10uM": "%"}, "values": [
      {"smiles": "CC1(C)CC(=O)c2sc(NS(=O)(=O)c3ccc(Cl)cc3)nc2C1", "hERG current change (%, negative = inhibition) at 10uM": 12.2},
      {"smiles": "CN(C)CCn1cnc2c1c(=O)n(C)c(=O)n2C.Cl", "hERG current change (%, negative = inhibition) at 10uM": 15.9},
      {"smiles": "C(=N\\Nc1nc(N2CCCCCC2)nc(N2CCCCCC2)n1)/c1ccccc1", "hERG current change (%, negative = inhibition) at 10uM": 15.7},
      {"smiles": "O=C(COC(=O)c1ccc2c(c1)S(=O)(=O)N=C1CCCCCN12)NCCc1ccc(F)cc1", "hERG current change (%, negative = inhibition) at 10uM": -3.75},
      {"smiles": "COc1ccccc1NC(=O)c1cc([N+](=O)[O-])ccc1NCCN1C(=O)CCC1=O", "hERG current change (%, negative = inhibition) at 10uM": -9.52},
      {"smiles": "Fc1ccc(CN2CCCCCC2)c(F)c1", "hERG current change (%, negative = inhibition) at 10uM": 1.9},
      {"smiles": "CCc1ccc(NC(=O)C2CCCN2S(=O)(=O)c2ccc3c(c2)C(C)(C)C(=O)N3C)cc1", "note": "(centres unmarked)", "hERG current change (%, negative = inhibition) at 10uM": -51},
      {"smiles": "O=C(CSc1nnc(-c2cccnc2)o1)OC1CCCCC1", "hERG current change (%, negative = inhibition) at 10uM": 0.805},
      {"smiles": "CCCC(=O)NC(c1ccccc1OC)c1ccc2cccnc2c1O", "note": "(centres unmarked)", "hERG current change (%, negative = inhibition) at 10uM": -18},
      {"smiles": "C=CCn1c(SCC(=O)Nc2ccccc2F)nnc1C(C)NC(=O)c1ccccc1F", "note": "(centres unmarked)", "hERG current change (%, negative = inhibition) at 10uM": -11.3},
      {"smiles": "COc1ccc(-c2nc3ccccn3c2NCc2ccc3c(c2)OCO3)cc1", "hERG current change (%, negative = inhibition) at 10uM": -82.4},
      {"smiles": "O=S(=O)(c1ccc(Cl)cc1)N1CCN(Cc2c[nH]c3ccccc23)CC1", "hERG current change (%, negative = inhibition) at 10uM": -18.8},
      {"smiles": "C=CCNC(=O)c1ccc(NC(=O)CC2SC(N3CCCC3)=NC2=O)cc1", "note": "(centres unmarked)", "hERG current change (%, negative = inhibition) at 10uM": 6.78},
      {"smiles": "CCN(CC)S(=O)(=O)c1ccc2nnn(O)c2c1", "hERG current change (%, negative = inhibition) at 10uM": 23.3},
      {"smiles": "COc1ccccc1CO/N=C/NC(=O)c1c(OC)ccnc1Oc1ccc(F)cc1", "hERG current change (%, negative = inhibition) at 10uM": -14.5},
      {"smiles": "CCOC(=O)C1=C(COC(=O)CSc2ccc(Br)cc2)NC(=O)NC1C", "note": "(centres unmarked)", "hERG current change (%, negative = inhibition) at 10uM": 6.33},
      {"smiles": "Cc1c(NC(=O)C23CC4CC(CC(C)(C4)C2)C3)c(=O)n(-c2ccccc2)n1C", "hERG current change (%, negative = inhibition) at 10uM": 13.9},
      {"smiles": "O=C1N/C(=C/c2cccs2)C(=O)N1Cc1ccc(Br)cc1", "hERG current change (%, negative = inhibition) at 10uM": 1.79},
      {"smiles": "O=C(NCCCCc1ccccc1)c1ccccc1Br", "hERG current change (%, negative = inhibition) at 10uM": 3.94},
      {"smiles": "CCOc1ccc(-c2ccc(SCc3ccccn3)nn2)cc1", "hERG current change (%, negative = inhibition) at 10uM": 1.15},
      {"smiles": "COc1ccc(CCNC(=O)c2ccccc2C(=O)NCCc2ccc(OC)c(OC)c2)cc1OC", "hERG current change (%, negative = inhibition) at 10uM": 3.48},
      {"smiles": "Cn1nc(-c2ccccc2)cc1NC(=O)C1CCCCC1", "hERG current change (%, negative = inhibition) at 10uM": 7.23},
      {"smiles": "Cc1noc(C)c1CSc1nc2sc(C)c(C)c2c(=O)n1C1CCCC1", "hERG current change (%, negative = inhibition) at 10uM": 17.7},
      {"smiles": "CCCS(=O)(=O)N1CCC(C(=O)NCc2ccco2)CC1", "hERG current change (%, negative = inhibition) at 10uM": 13.8},
      {"smiles": "CCOC(=O)C1=C(COC(=O)CCOc2ccc(OCC)cc2)NC(=O)NC1C", "note": "(centres unmarked)", "hERG current change (%, negative = inhibition) at 10uM": -6.11},
      {"smiles": "COC(=O)C1=C(C)N(CCCC(=O)O)C(=O)NC1c1ccc(Br)cc1", "note": "(centres unmarked)", "hERG current change (%, negative = inhibition) at 10uM": -17.7},
      {"smiles": "O=C(Nc1cccc(NC(=O)c2cccs2)c1)c1ccco1", "hERG current change (%, negative = inhibition) at 10uM": 1.77},
      {"smiles": "O=C(Nc1nc(-c2ccccc2)cs1)c1ccc(S(=O)(=O)N2CCc3ccccc32)cc1", "hERG current change (%, negative = inhibition) at 10uM": 7.9},
      {"smiles": "CN(C)S(=O)(=O)c1ccc(NC(=O)CN2CCCc3ccccc32)cc1", "hERG current change (%, negative = inhibition) at 10uM": -5.36},
      {"smiles": "COCCN(C(=O)CN1CCCc2ccccc21)c1c(N)n(Cc2ccccc2)c(=O)[nH]c1=O", "hERG current change (%, negative = inhibition) at 10uM": -12.1},
      {"smiles": "CC(=O)Nc1ccc(S(=O)(=O)NC(C)C(=O)OCC(=O)NC2CCCC2)cc1", "note": "(centres unmarked)", "hERG current change (%, negative = inhibition) at 10uM": 3.97},
      {"smiles": "CC(NC(=O)COC(=O)CCc1ccc(S(=O)(=O)N2CCOCC2)cc1)C1CC2CCC1C2", "note": "(centres unmarked)", "hERG current change (%, negative = inhibition) at 10uM": -1.16},
      {"smiles": "Nc1nonc1OCCOCCOCCOc1nonc1N", "hERG current change (%, negative = inhibition) at 10uM": 25.3},
      {"smiles": "CCCCn1c(N)c(N(CC(C)C)C(=O)CSCc2ccc(Cl)c(Cl)c2)c(=O)[nH]c1=O", "hERG current change (%, negative = inhibition) at 10uM": -6.21},
      {"smiles": "NC(=S)N/N=C/c1ccccc1[N+](=O)[O-]", "hERG current change (%, negative = inhibition) at 10uM": 7.25},
      {"smiles": "CCOC(=O)C1=C(C)Nc2nc3ccccc3n2C1c1ccccc1", "note": "(centres unmarked)", "hERG current change (%, negative = inhibition) at 10uM": 8.77},
      {"smiles": "Cc1ccc(S(=O)(=O)NCCC2=CCCCC2)cc1C(N)=O", "hERG current change (%, negative = inhibition) at 10uM": -34.7},
      {"smiles": "Cc1onc(-c2ccccc2)c1CNS(=O)(=O)c1ccccc1[N+](=O)[O-]", "hERG current change (%, negative = inhibition) at 10uM": 1.84},
      {"smiles": "O=C1CC(Nc2cc(=O)[nH]c(=O)[nH]2)C(=O)N1c1ccccc1Cl", "note": "(centres unmarked)", "hERG current change (%, negative = inhibition) at 10uM": 33.4},
      {"smiles": "Cc1ccccc1OCC(=O)NCC(=O)OCC(=O)c1ccc([N+](=O)[O-])cc1", "hERG current change (%, negative = inhibition) at 10uM": 4.62},
      {"smiles": "CC1C2(C)OC(=N)C(C#N)(C(C)O2)C1(C#N)C#N", "note": "(centres unmarked)", "hERG current change (%, negative = inhibition) at 10uM": 19.8},
      {"smiles": "S=C(NNC(=S)Nc1ccccc1)Nc1ccccc1", "hERG current change (%, negative = inhibition) at 10uM": 18.8},
      {"smiles": "Cc1ccc(C(=O)O/N=C/c2c(C(F)(F)F)nn(C)c2Sc2ccc(Cl)cc2)cc1", "hERG current change (%, negative = inhibition) at 10uM": 4.4},
      {"smiles": "CN1CCN(c2nc(-c3ccc(Cl)s3)cs2)CC1", "hERG current change (%, negative = inhibition) at 10uM": -3.91},
      {"smiles": "C[C@@H](NC(=O)c1[nH]cnc1C(=O)Nc1cccc(Cl)c1)c1ccccc1", "hERG current change (%, negative = inhibition) at 10uM": 2.01},
      {"smiles": "O=C(/C=C/NNC(=O)c1ccc(Cl)cc1)c1ccccc1", "hERG current change (%, negative = inhibition) at 10uM": 30.7},
      {"smiles": "Cn1c2ccccc2c(=O)c2c(=O)n(Cc3ccco3)c(COc3ccccc3)nc21", "hERG current change (%, negative = inhibition) at 10uM": -19.7},
      {"smiles": "Nc1nc(N2CCN(c3ccc(Cl)cc3)CC2)n[nH]1", "hERG current change (%, negative = inhibition) at 10uM": 4.91},
      {"smiles": "CNCC(O)CN(c1ccccc1)c1ccccc1", "note": "(centres unmarked)", "hERG current change (%, negative = inhibition) at 10uM": -39.8},
      {"smiles": "CCCCNc1nc2ccccc2n1CC(=O)Nc1c(C)cccc1CC", "hERG current change (%, negative = inhibition) at 10uM": -29.1},
      {"smiles": "O=C(N/N=C/c1coc2ccc(Cl)cc2c1=O)c1ccncc1", "hERG current change (%, negative = inhibition) at 10uM": 6.28},
      {"smiles": "CCOC(=O)c1cccc(NC(=O)CCn2nc(C)c(S(=O)(=O)N3CCCCC3)c2C)c1", "hERG current change (%, negative = inhibition) at 10uM": -4.89},
      {"smiles": "Cc1ccc(Nc2nc(N)nc(CSc3nc4ccccc4s3)n2)cc1", "hERG current change (%, negative = inhibition) at 10uM": 8.96},
      {"smiles": "Clc1ccccc1OCc1nc(-c2ccccn2)no1", "hERG current change (%, negative = inhibition) at 10uM": 1.71},
      {"smiles": "CCCOC1CCCN(C(=O)c2ccc(OC3CCN(Cc4ccccn4)CC3)cc2)C1", "note": "(centres unmarked)", "hERG current change (%, negative = inhibition) at 10uM": -2.66},
      {"smiles": "O=C(NC1(C(F)(F)F)C(=O)Nc2c1c(=O)[nH]c(=O)n2Cc1ccccc1)c1ccco1", "note": "(centres unmarked)", "hERG current change (%, negative = inhibition) at 10uM": -1.81}
    ]}
  ]
}
